{"source": "the supplement of paper PMC11417369", "note": "The other results are listed elsewhere or left out."}
{"tested_on": "PfAP2-HC AP2 domain (GST-tagged)", "assay": "gcPBM binding intensity (ln(normalized median fluorescence intensity)); higher = stronger DNA binding", "procedure,_shortened": "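Alexa488 anti-GST antibody, scanned at 488 nm, detected GST-tagged P. falciparum DNA-binding domains that had been expressed in E. coli and incubated for 1 h on an Agilent 4 × 180k array. The array carried primer-extended double-stranded 36-bp intergenic genomic probes and negative controls. Binding intensity is the highest Masliner-normalised natural-log median intensity across replicate spots of either orientation of each probe.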"}
{"sequence": "TATATTATTTTTTGTGGTACATGTATTTTTACCTAA [XGTACX_site4348]", "gcPBM binding intensity (ln)": 9.71}
{"sequence": "TACATATTTACTATCACACACACGATATATATAAAT [CACACA_site1242]", "gcPBM binding intensity (ln)": 10.5}
{"sequence": "ATACGAAAAAATAGACGTACTATGAAATAATAATTT [XGTACX_site8387]", "gcPBM binding intensity (ln)": 9.8}
{"sequence": "TACTTAAAAAAAAAAAAAATAAATATTATGTATTAT [CACACA_negctrl_site138]", "gcPBM binding intensity (ln)": 9.36}
{"sequence": "AATATTTTAAAAAAATGTACTTTTAACCCTTATTGG [XGTACX_site3490]", "gcPBM binding intensity (ln)": 9.26}
{"sequence": "TATAAAATATAAATTTGTACATATAAAATATTTTAT [XGTACX_site7462]", "gcPBM binding intensity (ln)": 9.34}
{"sequence": "TTTTTTAAAATATAAAATATGTACAAATATGTTGAA [GTGCAC_negctrl_site379]", "gcPBM binding intensity (ln)": 9.4}
{"sequence": "TAATAGTTATAAAATACACACCAGGCATGATAAATG [CACACA_site4335]", "gcPBM binding intensity (ln)": 9.82}
{"sequence": "TATATATATATACATACATATAAAGTTACATAAACA [CACACA_negctrl_site432]", "gcPBM binding intensity (ln)": 9.67}
{"sequence": "GAACAAACAAAGAAAGAACACACATACACAATATAC [CACACA_site8918]", "gcPBM binding intensity (ln)": 10.8}
{"sequence": "TAGATTTTTTTACATTGTACATATTTTTTCTTATAG [XGTACX_site293]", "gcPBM binding intensity (ln)": 9.8}
{"sequence": "ATATATGGGTAGTATACACACTGTATATTTAGGAAT [CACACA_site7357]", "gcPBM binding intensity (ln)": 9.91}
{"sequence": "GTATGAAAAAAATATGCATGCTAAATAATAAATGTT [TGCATGCA_site352]", "gcPBM binding intensity (ln)": 9.76}
{"sequence": "ATCATTTTTATAAATTGTACAAATATTTTTTATACA [XGTACX_site7551]", "gcPBM binding intensity (ln)": 9.48}
{"sequence": "TTATATAAATATAAGGTGCTGGGGTTTATTACATAT [GTGCAC_site9909]", "gcPBM binding intensity (ln)": 10.4}
{"sequence": "ATATCGCACGTTTGAAGTACATAAAAACGATTAATA [XGTACX_site7684]", "gcPBM binding intensity (ln)": 9.52}
{"sequence": "CACCAATTCATATGCACACACATCTGCATATTATAG [CACACA_site6925]", "gcPBM binding intensity (ln)": 9.98}
{"sequence": "CATATTATTTATATTTGTACACAGCGATATGAAATA [XGTACX_site7717]", "gcPBM binding intensity (ln)": 9.67}
{"sequence": "CTTACATAAAATATCACACACATAAAAAAACAATAT [CACACA_site1901]", "gcPBM binding intensity (ln)": 10.4}
{"sequence": "TATATATATATATATGTGCACATATATATGATATTA", "gcPBM binding intensity (ln)": 9.58}
{"sequence": "ATATTTTATACTTGCACACAAAATATATTAGAATGT [CACACA_site1985]", "gcPBM binding intensity (ln)": 9.88}
{"sequence": "GAAATCTAATTTATTACACACATTTGAAAAAAATTC [CACACA_site6640]", "gcPBM binding intensity (ln)": 9.58}
{"sequence": "TTATATTTTTTTGAGTGTACTTTTTGTGTAAAATTC [XGTACX_site2155]", "gcPBM binding intensity (ln)": 9.47}
{"sequence": "ACCCATTTTTGTTGTTCTATATATTCGTGAATCATT [CACACA_negctrl_site614]", "gcPBM binding intensity (ln)": 9.79}
{"sequence": "AATTTTTTGAATAATTGTACATATTTGGTTAAATAT [XGTACX_site3612]", "gcPBM binding intensity (ln)": 9.58}
{"sequence": "TTACTAAGAAGGATTTATTTTATAAAAATATTTATT [XGTACX_negctrl_site549]", "gcPBM binding intensity (ln)": 9.43}
{"sequence": "TGTTTATGTTTACATGTGCGCATTACAGAAAAAAAA [GTGCAC_site9669]", "gcPBM binding intensity (ln)": 9.54}
{"sequence": "TATTTTTATTGGTGAATACACACGTATATATATATT [CACACA_site2401]", "gcPBM binding intensity (ln)": 9.83}
{"sequence": "TTTTTATTTAAAAGTAGTACAAGGGTTATTATTAAC [XGTACX_site1555]", "gcPBM binding intensity (ln)": 9.34}
{"sequence": "ACATGTATACTTTTTACGAAAAAAAAAAAAAAAAAA [CACACA_negctrl_site1638]", "gcPBM binding intensity (ln)": 9.04}
{"sequence": "TTTTTTTTTTTTTTTGCACACTTAAATTTGGTGGGG [CACACA_site2344]", "gcPBM binding intensity (ln)": 9.85}
{"sequence": "CACGCGCACGAACACACACACACACGCATATAAATA [CACACA_site7103]", "gcPBM binding intensity (ln)": 11}
{"sequence": "ATATTATTTTATTTTTGTACAGATATCTTTAAAAAA [XGTACX_site3734]", "gcPBM binding intensity (ln)": 9.44}
{"sequence": "TACAGATAAATATACATACATATATATATATATATA [XGTACX_negctrl_site182]", "gcPBM binding intensity (ln)": 9.55}
{"sequence": "TTATTAAAAATGGTATGTACGCACATAATATATATA [XGTACX_site3230]", "gcPBM binding intensity (ln)": 9.83}
{"sequence": "AACATCATCTCTCCACAACAACAAAAAAAAAAATAC [CACACA_negctrl_site311]", "gcPBM binding intensity (ln)": 9.62}
{"sequence": "AATACATACATACATACATGCATATATATATATATA [TGCATGCA_site462]", "gcPBM binding intensity (ln)": 10.3}
{"sequence": "AAAATTATATGTAATTGTACGGAATTATATACGCAA [XGTACX_site2048]", "gcPBM binding intensity (ln)": 9.69}
{"sequence": "TCCTGTGGTTATATAACACACATTATTGCTTATAAG [CACACA_site6823]", "gcPBM binding intensity (ln)": 9.72}
{"sequence": "TTTTTTAAAAATATTATCATCGTAACAAGAAATCGA [CACACA_negctrl_site1111]", "gcPBM binding intensity (ln)": 9.3}
{"sequence": "GAACAAAAAAAAAATTGTACACAATTTTTTAAAATT [XGTACX_site4455]", "gcPBM binding intensity (ln)": 9.42}
{"sequence": "ATGATTTATTATTATACACACAAAAAAAAAAAAGGA [CACACA_site264]", "gcPBM binding intensity (ln)": 9.82}
{"sequence": "AATACATACATATATACATGCATACATATAAATATA [TGCATGCA_site674]", "gcPBM binding intensity (ln)": 9.74}
{"sequence": "GCTTATAAGATATGCACACACAACACTTACAAAAAA [CACACA_site817]", "gcPBM binding intensity (ln)": 10.1}
{"sequence": "AAACAAAAAAAATAAGCACACATATATATATATATA [CACACA_site8173]", "gcPBM binding intensity (ln)": 9.7}
{"sequence": "ATTTTATGAAATGTTGCACACAAAAAACAACATGTT [CACACA_site8408]", "gcPBM binding intensity (ln)": 9.81}
{"sequence": "TATATGATATAATATACACACATACATATATATATA [CACACA_site8066]", "gcPBM binding intensity (ln)": 9.84}
{"sequence": "GAACAACAACAAAAAAAAAAAAAAAAAAAAAAAAAA [CACACA_negctrl_site199]", "gcPBM binding intensity (ln)": 8.96}
{"sequence": "TAAATAAATATATGTACACACACAAATATATACATA [CACACA_site8577]", "gcPBM binding intensity (ln)": 10.3}
{"sequence": "CTGAATTTTTATAACTGTACATATTTGATATAAAAA [XGTACX_site183]", "gcPBM binding intensity (ln)": 9.33}
{"sequence": "ATGGGAAAAACATTCCGTACATACATACACATATAT [XGTACX_site8263]", "gcPBM binding intensity (ln)": 9.75}
{"sequence": "ATATTTAATACAAATACACACACAAATATATACATA [CACACA_site9248]", "gcPBM binding intensity (ln)": 10.4}
{"sequence": "ATATTGCTTATTTGATGTACGAATACACTAGTATTA [XGTACX_site4536]", "gcPBM binding intensity (ln)": 9.64}
{"sequence": "ATACTAAATGAACACACACACATATAGATTTATAAC [CACACA_site6200]", "gcPBM binding intensity (ln)": 10.5}
{"sequence": "TATCTGTATATGTGTACACATATTCTTAACTCACGC [CACACA_site4255]", "gcPBM binding intensity (ln)": 9.86}
{"sequence": "TCACTTTTTATTAAATGTACATGCTTTCATTTTCAT [XGTACX_site8139]", "gcPBM binding intensity (ln)": 9.79}
